Assay results: PubChem BioAssay AID686978 (National Center for Advancing Translational Sciences (NCATS), 2013)
Among all 420,000 compounds or so, about 64,000 (15%) were called active. This list was built around the results that the source calls inconclusive (neither active nor inactive); the mix of calls is not that of the screen. Calls come from the whole dose curve; as a rule, active = well fitted inhibition curve with a large enough effect; inconclusive = small, poorly fitted or top-dose-only effect; inactive = flat fitted curve, though single readings scatter. Potencies of inconclusive entries are left out as doubtful fits.

Experiment: qHTS for Inhibitors of human tyrosyl-DNA phosphodiesterase 1 (TDP1): qHTS in cells in absence of CPT; note: nearly all actives have a fitted effect of over 55% in size
Conditions: DT40 Tdp1-/- hTDP1 cells, no CPT, ATP luminescence, 48 h; activity change, negative = growth inhibition: at 46.2 µM (top of the series) unless noted
In short: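 Growth of hTDP1-complemented DT40 Tdp1-knockout cells is measured by ATP luminescence after at least 48 hr compound exposure at 37 °C, with DMSO substituting for the 20 nM CPT used in the parallel screen.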
% is set by controls: 0 for no effect and ±100 for the full control effect; potency is the fitted concentration of half-maximal effect; tags give direction and shape of the fitted curve.

SMILES	Potency	activity change, negative = growth inhibition
CC12CCC(=O)N1C(C(=O)Nc1cc(S(=O)(=O)N3CCCCCC3)ccc1OCC(F)(F)F)CS2 (stereo not given)	inactive	–
COC(=O)C1=C(C)N(C)C(C)=C(C(=O)OC)C1c1ccccc1C	inconclusive [inhibitor, single point]	–
O=S(=O)(Nc1ccc2c(c1)oc1ccccc12)N1CCCC1	inconclusive [inhibitor, partial curve]	–
COc1ccccc1CCC(=O)Nc1cc(S(=O)(=O)N2CCCCC2)ccc1N1CCN(C)CC1	active: 20.6 µM	–
CC(=O)Nc1ccccc1OCCCN1CCC(C(O)(c2ccccc2)c2ccccc2)CC1	inconclusive [inhibitor, single point]	–
Cc1noc(C)c1COC(=O)Cc1ccc(Cl)c(Cl)c1	inactive	–
COc1ccc(N=C2SC(CC(=O)Nc3ccccc3OC)C(=O)N2Cc2ccco2)cc1 (stereo not given)	inconclusive [inhibitor, single point]	–
Cc1cccc(C(=O)OCC(=O)c2ccc3c(c2)NC(=O)CO3)c1	inconclusive [inhibitor, partial curve]	–
Cc1ccc(N(C(=O)c2csnn2)C(C(=O)NC2CCCCC2)c2cccnc2)cc1C (stereo not given)	inactive	–
COc1ccc(-c2csc(NC(=S)NC(=O)c3ccc4ccccc4c3)n2)cc1OC	inconclusive [inhibitor, partial curve]	–
COc1cc2c(cc1OC)C(c1ccccc1)N(S(C)(=O)=O)CC2 (stereo not given)	inactive	–
Cc1csc(=O)n1CCC(=O)OCC(=O)N(C)c1c(N)n(Cc2ccccc2)c(=O)[nH]c1=O	inactive	–
CCC(Oc1ccc(Cl)cc1)C(=O)N1CC(=O)Nc2ccccc21 (stereo not given)	inconclusive [inhibitor, partial curve, poor fit]	–
O=C(CN1CCCc2ccccc21)NCCc1ccc(Cl)cc1	inconclusive [inhibitor, single point]	–
COc1ccc(CNC(=O)CN(C(=O)c2csnn2)c2cnc3ccccc3c2)cc1	inconclusive [inhibitor, single point]	–
COc1ccc(-c2cc(C(=O)NNC(=O)c3csc(N4CCOCC4)n3)c3ccccc3n2)cc1	inconclusive [inhibitor, single point]	–
OC(CCN1CCCCC1)(c1ccccc1)C1CCCCC1 (stereo not given)	inconclusive [inhibitor, single point]	–
O=C(COc1ccccc1-c1nc(-c2ccccc2)no1)Nc1cccc([N+](=O)[O-])c1	inconclusive [inhibitor, partial curve, poor fit]	–
CCc1ccccc1N(C(=O)c1snc(C(N)=O)c1N)C(C(=O)NCC1CCCO1)c1ccc(OC)c(OC)c1 (stereo not given)	active: 11.6 µM	–
Cn1c(SCc2cc(=O)n3cc(Br)ccc3n2)nnc1C1COc2ccccc2O1 (stereo not given)	inconclusive [inhibitor, single point]	–
CCCNS(=O)(=O)c1ccc(CCC(=O)N2CCN(c3ccc(F)cc3)CC2)cc1	inconclusive [inhibitor, single point]	–
Cc1ccc(S(=O)(=O)NN=C2CC3CC2C2CCCC32)cc1 (stereo not given)	–	inconclusive: -30.6% [inhibitor]
CN(C)CCCNc1nc2cc(-c3cnn(Cc4ccccc4)c3)sc2c(=O)n1C	inconclusive [inhibitor, single point]	–
CCOC(=O)c1c(-c2ccccc2)oc2ccc(N(C(C)=O)S(=O)(=O)c3ccc(CC)cc3)cc12	active: 5.8 µM	–

SMILES	Potency	activity change, negative = growth inhibition
CC(NC(=O)CCCCCCN1C(=O)c2ccccc2C1=O)c1ccc2c(c1)CCCC2 (stereo not given)	inconclusive [inhibitor, single point]	–
Cc1ccc(S(=O)(=O)Cc2ccc(C(=O)N3CCN(c4cccc(Cl)c4)CC3)o2)cc1	active: 0.651 µM	–
CC(C)Oc1ccc(CNC(=O)C2CCN(C(=O)N3CCOc4ccccc43)CC2)cc1	inconclusive [inhibitor, single point]	–
CC1=CC(=O)[C@H]2C(C)(C)CCC[C@]2(C)[C@@]1(O)CO	inactive	–
CC(C)C(=O)Nc1cccc(COc2ccc(CN(CCc3ccccc3)C(=O)OC(C)(C)C)cc2)c1	active: 13 µM	–
CC(NC(=O)c1ccccc1SCC(=O)N1CCCC1)c1ccccc1 (stereo not given)	inactive	–
CCOc1cc(N2CCOCC2)c(OCC)cc1NC(=O)COC(=O)CCOc1ccc(C(C)(C)C)cc1	inconclusive [inhibitor, single point]	–
COc1ccc(NC(=O)C2CCN(S(=O)(=O)c3ccc(N4CCCC4=O)cc3)CC2)cc1OC	inactive	–
COC(=O)c1ccccc1NC(=O)c1cc2cc(C)ccc2n1C	active: 5.8 µM	–
NC(=O)c1cc(S(=O)(=O)N2CCOCC2)ccc1N1CCCC1	inactive	–
CN1OC[C@@H]2CN(C(=O)C(C)(C)C)[C@H](c3cccc(Br)c3)C[C@@H]21	inactive	–
COc1ccc(-c2ccc3[nH]c4c(c3c2)CCN2C[C@H]3[C@H](C)ON(C)[C@H]3C[C@@H]42)cc1	active: 20.6 µM	–
CNC(=S)N(Cc1ccc(Cl)cc1)Cc1cccs1	active: 16.4 µM	–
Cc1nnc(N=c2ssnc2Cl)o1	active: 1.03 µM	–
COC(=O)C1=NN(C(=O)c2cccc(Cl)c2)C(O)(C(C)(C)C)C1 (stereo not given)	inactive	–
COCCNC(=O)c1cc2oc3ccccc3c2n1C	inconclusive [inhibitor, partial curve, poor fit]	–
COc1cccc(-c2csc(N3CCN(C(=S)Nc4ccccc4OC)CC3)n2)c1	inconclusive [inhibitor, single point]	–
Cc1ccccc1OCC(=O)Nc1cccc(C(=O)OCc2cc(=O)n3c(C)csc3n2)c1	inconclusive [inhibitor, single point]	–
COc1ccc(CNC(=O)c2cn(Cc3ccccc3F)c(=O)s2)cc1	inconclusive [inhibitor, single point]	–
CCCCOc1ccc(C(=O)N2CCN(CC(=O)Nc3ccc(C)cc3)CC2)cc1OC	–	inconclusive: -33% [inhibitor]
CN(CC(=O)Nc1ccccc1Cl)C(=O)COC(=O)/C=C/c1ccc(C(F)(F)F)cc1	inactive	–
CCc1cccc(NC(=O)C2CCC(CNS(=O)(=O)c3ccc(Br)s3)CC2)c1 (stereo not given)	inconclusive [inhibitor, single point]	–
CS(=O)(=O)NNC(=O)Cn1nnc(-c2ccc(OCc3ccccc3Cl)cc2)n1	inactive	–
CCc1nc2cccnc2n1-c1ccc(CC(=O)Nc2cccc(C)c2C)cc1	inconclusive [inhibitor, partial curve]	–

SMILES	Potency	activity change, negative = growth inhibition
NC(=O)CSc1nc2ccccc2c(=O)n1CCc1ccccc1	inconclusive [inhibitor, single point]	–
c1ccc(CN2CCN(c3ncnc4c3cnn4-c3ccccc3)CC2)cc1	active: 18.4 µM	–
CCc1cc(C(=O)Cc2ccc(F)cc2)c(O)cc1O	inconclusive [inhibitor, single point]	–
CC(=O)c1ccc(S(=O)(=O)N2CCc3ccccc3C2)cc1	inconclusive [inhibitor, single point]	–
O=C(NCCNC(=O)c1ccc([N+](=O)[O-])cc1)c1ccncc1	inactive	–
CCC1=Nc2cc(C(=O)NCCN(CC)CC)ccc2Sc2ccccc21	inconclusive [inhibitor, single point]	–
CC1=NN(C(N)=S)C(=O)C1N=Nc1ccc(Br)cc1 (stereo not given)	inconclusive [inhibitor, single point]	–
COc1cccc(-c2nc(CS(=O)(=O)CC(=O)Nc3ccc(C(C)=O)cc3)c(C)o2)c1	inconclusive [inhibitor, single point]	–
C[C@H](CO)N1C[C@H](C)[C@@H](CN(C)C(=O)Nc2ccc(C(F)(F)F)cc2)Oc2c(cccc2N(C)C)C1=O	active: 23.1 µM	–
COc1ccc(C(C)=O)cc1CSc1nnc(-c2ccc(Cl)cc2)n1-c1ccccc1	active: 13 µM	–
Cc1ccc(C)c(S(=O)(=O)c2nnn3c2nc(NC2CCCCC2)c2sccc23)c1	inconclusive [inhibitor, single point]	–
CN(C)c1ncc(S(=O)(=O)c2ccccc2)c(-c2ccc(Cl)cc2Cl)n1	inactive	–
Brc1ccccc1OCCCN1CCCC1	inconclusive [inhibitor, partial curve, poor fit]	–
O=C(NCc1ccc(F)cc1)c1ccc(CS(=O)(=O)Cc2ccc(F)cc2)o1	inconclusive [inhibitor, partial curve, poor fit]	–
CCOC(=O)CSc1nc2cc(OC)c(OC)cc2cc1C#N	active: 17.8 µM	–
CCN(C(=O)CN1CCCC(C)C1)c1c(N)n(Cc2ccccc2)c(=O)[nH]c1=O (stereo not given)	inactive	–
O=C(NNc1nc2c(F)cccc2s1)c1ccc(F)cc1	inconclusive [inhibitor, single point]	–
COCCCNC(=O)C[C@@H]1C[C@@]2(C(=O)OC)CC(C)(C)CC=C2N(CCc2ccc(OC)c(OC)c2)C1=O	inactive	–
CCN1CCN(C(=O)c2cc3nc(-c4ccccc4)cc(C(F)(F)F)n3n2)CC1	inactive	–
Cc1ccc(C)c(N2CCN(C(=O)NCc3noc4ccc(C)cc34)CC2)c1	inconclusive [inhibitor, single point]	–
C=CCN1C(c2ccccc2)=CS/C1=C(/C#N)c1nnc(N2CCOCC2)n1-c1ccccc1	active: 14.6 µM	–
CCOCCCNS(=O)(=O)c1ccc(NC(=O)c2ccc(OC)c([N+](=O)[O-])c2)cc1	inconclusive [inhibitor, single point]	–
